# Data from the supplement of paper PMC3334620.
# Whole data set: some 33,000 sequences, median “E-score (-0.5 to 0.5)” near -0.013, cut for the highest 2% near 0.3. The list shows a part of the results.
# Biological target: T1, Msn1 (UniProt P22148)
# T1 sequence: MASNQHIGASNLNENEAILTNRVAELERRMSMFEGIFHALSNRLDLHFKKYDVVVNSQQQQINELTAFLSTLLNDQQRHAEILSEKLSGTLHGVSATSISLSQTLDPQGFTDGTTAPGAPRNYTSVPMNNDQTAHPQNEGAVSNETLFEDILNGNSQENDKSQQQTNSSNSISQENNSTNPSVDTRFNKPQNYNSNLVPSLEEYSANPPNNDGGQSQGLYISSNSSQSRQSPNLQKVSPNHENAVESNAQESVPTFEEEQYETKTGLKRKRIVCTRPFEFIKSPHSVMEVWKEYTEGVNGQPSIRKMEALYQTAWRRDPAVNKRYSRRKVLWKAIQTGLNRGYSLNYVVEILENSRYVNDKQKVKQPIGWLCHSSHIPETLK
# Assay: PBM E-score (8-mer binding enrichment) (E-score (-0.5 to 0.5)); higher = stronger / more preferred TF binding; most listed sequences are background and not binding sites
# Conditions: protein concentration: 200 nM; construct: GST-full length
# Procedure, shortened: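 Masliner-normalised scans of fluorescent anti-GST signal were the basis for scoring. That signal came from GST-tagged yeast transcription factors applied at about 100-200 nM to double-stranded universal all-10-mer Agilent arrays on fresh or once-stripped slides. Each ungapped eight-base word, pooled with its reverse complement, received an E-score from the Universal PBM Analysis Suite.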
row,Sequence,PBM E-score
1,AGGATGGC,-0.155
2,CTCATTGA,-0.179
3,AAGACCAC,-0.264
4,AACTCGAT,-0.0849
5,ATAAGATA,0.149
6,CAGTGTGC,-0.161
7,AGCAGCTG,-0.176
8,CGAGAGTA,0.095
9,AGTATAAG,0.00564
10,CGACAGTC,-0.182
11,GTAGGCGA,-0.0692
12,AAACCGTT,0.0554
13,GTAGCCAA,-0.0143
14,CCAGAGAG,-0.324
15,CGCTGGCC,-0.279
16,AATCACCG,-0.17
17,AATAGGAA,0.102
18,TGCCGAAA,0.112
19,CCGCTATA,0.0419
20,GTACTCAA,0.0241
21,ACGTGGGA,-0.0982
22,AATTCGAT,0.167
23,AGGCTATC,-0.084
24,AGAGGTTA,-0.0665
25,CCAGACGG,-0.323

row,Sequence,PBM E-score
1,ACAACTCA,0.171
2,CGATGCCC,-0.154
3,ATTGGAGA,0.0726
4,AATTGGAA,-0.0457
5,CGGTGCGA,0.033
6,GAGCACCA,-0.157
7,CACACGTG,-0.0558
8,CCGCCAAG,-0.121
9,CATCCGTA,0.00081
10,CGCCTGGC,-0.134
11,ACAAGACG,0.0049
12,GATCAAGC,-0.0561
13,AGGGGTGG,-0.213
14,CAAGACTG,0.0468
15,CAGATTGA,-0.119
16,GGTGGAGA,-0.396
17,CAATAGTG,0.0652
18,CTGGTGAC,-0.204
19,GGAAAGCA,0.00386
20,TGTCGAAA,0.126
21,CGAACTGC,-0.0553
22,CGACTTAA,0.0893
23,CTCCTGCC,-0.238
24,GGCAATAA,0.132
25,AGAAACTG,0.128

row,Sequence,PBM E-score
1,ATCTAGTG,-0.189
2,AGTAAGGG,0.0152
3,GCACAATA,-0.126
4,ATTGGAAG,-0.0559
5,GATGCGAA,-0.118
6,ATGTATCC,0.0899
7,ACCCTGCC,-0.244
8,GGCTCGCA,-0.102
9,AGGAATAA,0.119
10,ACAAATCT,0.308
11,ATACCATG,0.197
12,CCGATTTA,0.109
13,ACCTAAGA,-0.0145
14,CCAAGCTA,-0.0997
15,AAATAGAG,0.0998
16,CGGGAACA,0.115
17,AACGACAG,-0.0454
18,GACGCCAA,-0.157
19,GAAGAGTA,-0.102
20,CCCAGAAA,0.0976
21,TAGCCGGA,-0.0178
22,GGGCAAAC,-0.00772
23,CGTTCTGC,0.0987
24,ACGTGTGG,-0.205
25,CTCGGCAC,-0.0507

row,Sequence,PBM E-score
1,AGTTGTGG,-0.00841
2,ACCAAGCC,-0.0985
3,AAGGCTAC,-0.138
4,ACACGTCT,0.0624
5,AAACGAGC,-0.0279
6,CTACACCA,-0.216
7,ATTCACCA,0.0317
8,CTTGTACA,0.311
9,CCAACATC,-0.00901
10,AAACCGCT,-0.0604
11,CCTGAGCC,-0.165
12,ACATGGTC,-0.0129
13,AGTTTAAT,0.211
14,AATCTAAG,0.00698
15,TCTTGGCA,0.125
16,CCTAACTC,-0.0997
17,CAAACGTC,0.181
18,CTCTGCCA,-0.288
19,GCATACCC,-0.0839
20,CTCGGACA,0.44
21,ATATTAAC,0.0178
22,ATAACAAC,0.154
23,GCTCGTTA,-0.0548
24,AATGGCTC,0.218
25,CGTAGGCA,-0.203

row,Sequence,PBM E-score
1,CTAATTGA,-0.116
2,CCACAATA,-0.105
3,ATTGTCTA,0.391
4,ATCTGATA,-0.234
5,GCAATCGC,-0.104
6,GCGGTAAA,0.161
7,ATACCTCC,-0.0821
8,ACGCTCCA,-0.179
9,CCCGCCCG,0.0671
10,ACCTCCCC,-0.0695
11,AGATTGAA,0.0836
12,TCTCCGAA,0.0926
13,AACATACC,0.107
14,ACAGGATA,0.054
15,TCATACCA,0.124
16,GCTACAGA,0.00547
17,CCTGACCA,0.101
18,CGCGGTAG,-0.00222
19,CAGACTTA,0.135
20,GCGACAAA,0.355
21,ACACTGAA,0.0976
22,ATCTCAAA,0.131
23,GAACTGCA,0.0252
24,GATATCAA,-0.0116
25,CAAGACTA,0.0327

row,Sequence,PBM E-score
1,CATGGGAG,-0.0233
2,TGTGGCAA,0.0358
3,GACTCCAA,-0.2
4,AGGGCACA,-0.0882
5,GATCCTCA,0.0448
6,ATGCCAGC,-0.298
7,CAGTCTCA,-0.093
8,GGGATCCC,-0.159
9,AGCATGAT,-0.0844
10,AGTAACAT,0.121
11,AGACGTAG,0.0019
12,ATGGACGC,0.122
13,ACCTACGC,-0.0682
14,AAGGCCGA,0.0764
15,AGCTGACC,-0.131
16,CGCGAACG,0.0532
17,AAACGATC,0.0597
18,CGGCCTCC,-0.217
19,GAATAGGC,-0.103
20,CATTTCAA,0.176
21,GAGGCATA,0.0447
22,GCTGGAAA,-0.0496
23,AATCTCCG,-0.0674
24,TGCCTGAA,-0.0759
25,CTCGGCCC,-0.164

row,Sequence,PBM E-score
1,CTCCGATC,0.0333
2,ACTCACAG,-0.07
3,AGGAATAG,0.0389
4,ACTGCCGG,-0.0605
5,AAAGTATC,0.165
6,ATAAACCA,0.0509
7,ATCGCCTC,-0.0571
8,ACTACTGA,-0.063
9,GAAGGTGA,-0.0331
10,AAAACTTC,-0.104
11,GGGATGAA,-0.202
12,AGTGCTTC,-0.0765
13,AGCATTAC,-0.187
14,ACCGTTGA,-0.0115
15,CTGACCCC,-0.119
16,ACACTTAT,0.0932
17,AATCCTCT,-0.265
18,ACCGTACT,-0.0352
19,CACTTCAG,-0.0588
20,GGTTGGGA,-0.0804
21,CATATCGA,-0.0141
22,CAGGCGGC,-0.206
